# Assay results taken from PubChem BioAssay AID1458 (National Center for Advancing Translational Sciences (NCATS), 2008).
# The whole screen tested about 210,000 compounds, of which about 5,900 (2.8%) were called active. The inconclusive results got no clear call from the source; some entries with a clear call stand among them for comparison. Calls come from the whole dose curve; as a rule, active = well fitted activation curve with a large enough effect; inconclusive = small, poorly fitted or top-dose-only effect; inactive = no such curve, though single readings can be large or run the other way. Potencies of inconclusive entries are doubtful fits and often do not repeat.
# Assay: qHTS Assay for Enhancers of SMN2 Splice Variant Expression; note: nearly all actives have a fitted effect of over 55% in size; for activity change, positive = activation: % of control where 0% means no effect
# Conditions: HEK293 SMN2-luciferase splicing reporter, luminescence, 30-36 h; activity change, positive = activation: at 46.1 µM (top of the series)
# Method in brief: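 HEK293 cells carry an SMN2 minigene-luciferase reporter in which exon 7 inclusion puts luciferase in frame. Cells were seeded at 2000 cells/well, attached for 10-12 hours, then exposed to compounds for 30-36 hours at 37C before ONE-Glo luminescence.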
# Potency is the fitted concentration of half-maximal effect; tags give direction and shape of the fitted curve.
SMILES,"activity change, positive = activation",Potency
Clc1ccc(-n2ncc3c(N4CCCC4)ncnc32)cc1,inactive: -74.9%,
ClC(Br)=C(n1cnc2ccccc21)n1cnc2ccccc21,,"inconclusive: 0.178 µM [activator, full curve]"
O=C(CCc1nc2ccccc2s1)OCC(=O)c1ccccc1,inactive: 18.3%,
COCCCn1cnc2oc3nc4ccccc4nc3c2c1=O,,active: 10 µM
Cc1ccc2oc3c(c(=O)c2c1)C(c1cccs1)N(CCCN(C)C)C3=O (stereo not drawn),,"inconclusive: 11.2 µM [activator, single point]"
Oc1ccccc1-c1cc(-c2ccco2)[nH]n1,,"inconclusive: 25.1 µM [activator, single point]"
CCC(CC)NC(=O)c1ccc2c(c1)OCCO2,,"inconclusive: 8.91 µM [activator, partial curve]"
CN(C)CCCNC(=O)c1ccc(CN(c2ccccc2)S(C)(=O)=O)cc1,,"inconclusive: 0.0032 µM [activator, full curve, poor fit]"
Cc1ccc(N)c(C(O)(C(F)(F)F)C(F)(F)F)c1,,"inconclusive: 3.16 µM [activator, single point]"
CCN(CCCCCN(C)C)Cc1cc2ccccc2o1,,"inconclusive: 0.316 µM [activator, full curve, poor fit]"
Cc1cc(C)cc(NCc2cc(=O)oc3cc(-c4ccccc4)c(O)cc23)c1,,"inconclusive: 0.1 µM [activator, full curve, poor fit]"
O=c1[nH]c2ccc(Cl)cc2c(-c2ccccc2)c1SC(=S)N1CCOCC1,,"inconclusive: 5.62 µM [activator, full curve, poor fit]"
Fc1ccccc1CSCc1nc2ccccc2[nH]1,,active: 10 µM
Cc1onc(-c2ccccc2Cl)c1C(=O)Nc1ccc(S(=O)(=O)NCC2CCCO2)cc1 (stereo not drawn),,"inconclusive: 0.0112 µM [activator, full curve, poor fit]"
O=C(/C=C\Nc1ccccn1)c1ccc(Cl)cc1,,active: 1 µM
CCSc1ccc(-c2cccc([N+](=O)[O-])c2)nn1,,"inconclusive: 11.2 µM [activator, partial curve, poor fit]"
Oc1ccc(-c2[nH]ncc2-c2nc3ccccc3s2)c(O)c1,,"inconclusive: 25.1 µM [activator, single point]"
O=C(c1ccc(COc2ccc(Br)cc2)o1)N1N=C(C(F)F)CC1(O)C(F)F (stereo not drawn),inactive: -45.8%,
Cc1cn2nc(N)c3ccccc3c2n1,inactive: 0.853%,
Cc1ccc(NS(=O)(=O)c2cc(C(=O)N3CCOCC3)ccc2C)cc1C,,"inconclusive: 1.41 µM [activator, full curve]"
O=C(NNc1c2ccccc2nc2ccccc12)c1ccccc1O,inactive: -14.8%,
O=C(N/N=C/c1ccc(N2CCOCC2)s1)c1ccccc1Cl,inconclusive: 35% [activator],
Nc1nc(-c2ccccc2)c(N=Nc2ccccc2Cl)s1,inactive: -15.5%,
Clc1ccc2c(c1)-n1cc(-c3ccccc3)nc1CO2,inconclusive: 31% [activator],

SMILES,"activity change, positive = activation",Potency
CCCn1cnc2c(c1=O)c1nc3ccccc3nc1n2Cc1ccccc1OC,,"inconclusive: 0.0501 µM [activator, partial curve, poor fit]"
CCOc1ccc(-n2nc(C(=O)NCCOC)c3ccccc3c2=O)cc1,,"inconclusive: 5.62 µM [activator, partial curve, poor fit]"
CCOc1ccccc1N1CCN(S(=O)(=O)c2cccc3nsnc23)CC1,,"inconclusive: 15.8 µM [activator, partial curve]"
Cc1ccc(-c2cc(C(F)F)n3ncc(C(=O)NCc4ccco4)c3n2)cc1,,"inconclusive: 3.98 µM [activator, single point]"
COc1ccc(N=Nc2nc3ccc(Br)cc3n2C)cc1,,"inconclusive: 14.1 µM [activator, partial curve, poor fit]"
OC1CCN(c2c3c(nc4cc(-c5cccc(F)c5)nn24)CCCC3)CC1,inactive: 28.9%,
Cc1cccc(NC(=O)CSC2=Nc3ccccc3C3=NC(CC(=O)NCc4cccs4)C(=O)N23)c1 (stereo not drawn),inactive: 7.04%,
Cc1cc(NC(=O)/C=C/c2ccccc2)no1,,"inconclusive: 12.6 µM [activator, partial curve]"
Fc1cccc(CSc2ccc(-c3ccco3)nn2)c1,,"inconclusive: 14.1 µM [activator, partial curve, poor fit]"
O=C(OCC(F)(F)F)c1cccc(COc2ccc3ccccc3c2)c1,,active: 0.447 µM
CC(C)Oc1ccc(Nc2ncnc3ccccc23)cc1,,active: 12.6 µM
COc1cc(/C=N/NC(=S)N/N=C/c2cc(OC)c(OC)c(OC)c2)cc(OC)c1OC,,active: 4.47 µM
CCOc1ccc(Nc2oc(-c3cccc(Cl)c3)nc2C#N)cc1,,"inconclusive: 35.5 µM [activator, single point]"
Cc1ccc(Nc2nc(COC(=O)COc3ccc(C=O)cc3)cs2)cc1,,active: 35.5 µM
C/C(=N/NC(=O)c1cccs1)c1ccco1,,"inconclusive: 0.0708 µM [activator, full curve, poor fit]"
COc1ccccc1-c1nc(-c2cccc(C)c2)no1,,active: 4.47 µM
C=CCn1c(-c2ccc(N)cc2)nc2ccccc21,,"inconclusive: 11.2 µM [activator, single point]"
Cc1ccc(Nc2nnc(SCc3ccccc3)s2)cc1,,active: 14.1 µM
O=C(CSc1nnc(-c2ccco2)o1)c1ccccc1Cl,inactive: 21.9%,
CCOC(=O)c1cccc(Nc2nc(C)cc(C)n2)c1,,"inconclusive: 31.6 µM [activator, single point]"
COc1ccc(/C=C/c2nc(-c3ccccc3O)n[nH]2)cc1OC,,"inconclusive: 35.5 µM [activator, single point]"
Cn1cc(Br)c(C(=O)N2CCc3ccccc32)n1,,"inconclusive: 12.6 µM [activator, single point]"
CCOc1cc(/C=C2/NC(=O)N(Cc3ccccc3F)C2=O)ccc1O,,"inconclusive: 7.94 µM [activator, partial curve]"
CCOC(=O)Nc1nc2ccccc2s1,,"inconclusive: 22.4 µM [activator, single point]"
